The source holds more than one record for some entries. This is not the full list of results. There may be further records. The records of an entry are repeats (runs, samples, wells, individuals or studies).
What was measured:
Fibroblast = experiment: Multiplex assay against human fibroblast; format: toxicity, cell-based; details: number of replicates 2
How it was run: (§1)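 Imaging took place on a CQ1 microscope at 37°C and 5% CO2 once compound had been added to live cells stained at seeding with Hoechst33342, BioTracker Green Microtubule Cytoskeleton Dye, MitoTracker Red and Annexin V Alexa Fluor 680. CellPathfinder machine-learning gating classed cells as Hoechst high-intensity objects or normal cells, classed normal cells as having healthy, pyknosed or fragmented nuclei, and classed pyknosed cells as mitotic or apoptotic. Tubulin, mitochondrial-mass and membrane-permeability phenotypes are per cents of the healthy-nucleus cells.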

U2OS = experiment: Multiplex assay against U2OS; format: toxicity, cell-based; details: human, number of replicates 2; how it was run: as §1
[1] = 48 h, 10 µM, compound concentration 10 uM
[2] = 12 h, 1 µM, compound concentration 1 uM
[3] = 12 h, 10 µM, compound concentration 10 uM
[4] = 24 h, 1 µM, compound concentration 1 uM
[5] = 24 h, 10 µM, compound concentration 10 uM
[6] = 48 h, 1 µM, compound concentration 1 uM

Compound | Total Cell Count (U2OS; [2]) | Total Cell Count (U2OS; [3]) | Total Cell Count (U2OS; [4]) | Total Cell Count (U2OS; [5]) | Total Cell Count (U2OS; [6]) | Total Cell Count (U2OS; [1]) | Population Healthy Nuclei (%) (U2OS; [5]) | Population Mitotic Cells (%) (U2OS; [4]) | Population Fragmented Nuclei (%) (U2OS; [5]) | further results
C[C@@H](Oc1cc(-n2cnc3ccc(OC4CCN(C)CC4)cc32)sc1C(N)=O)c1ccccc1Cl [GSK-579289A] | 42 and 250 | 192 and 46 | 32 and 253 | 48 and 206 | 228 and 38 | 43 and 165 |  |  |  | Population Membrane Permeable-Phenotype (%) (Fibroblast; [1]): 4% and 19%; Population Mitochondria Different-Phenotype (%) (U2OS; [2]): 9% and 28%; Population Mitotic Cells (%) (U2OS; [2]): 0% and 52%; Population Mitochondria Different-Phenotype (%) (U2OS; [4]): 11% and 34%; Population Fragmented Nuclei (%) (U2OS; [6]): 7% and 23%; Population Mitochondria Different-Phenotype (%) (U2OS; [6]): 42% and 4%; Population Mitotic Cells (%) (U2OS; [6]): 4% and 25%
Cc1cc(C2CCCNC2)ccc1Nc1ncc(Br)c(NCc2cccc3c2C(C)(C)C(=O)N3)n1 (stereo not given) |  | 59 and 339 |  | 47 and 328 |  | 46 and 329 | 19% and 63% |  |  | Population Membrane Permeable-Phenotype (%) (Fibroblast; [1]): 25% and 6%; Population Fragmented Nuclei (%) (U2OS; [2]): 32% and 10%; Population Fragmented Nuclei (%) (U2OS; [4]): 26% and 5%; Population Healthy Nuclei (%) (U2OS; [1]): 4% and 48%
Cn1cc(-n2cnc3c(NCc4nc5cc(Cl)c(Cl)cc5[nH]4)nc(N4CCOCC4)nc32)cn1 | 47 and 174 | 41 and 129 | 199 and 41 | 150 and 39 | 186 and 39 | 38 and 142 | 26% and 7% | 3% and 20% | 8% and 30% | Population Fragmented Nuclei (%) (Fibroblast; [2]): 4% and 22%; Population Fragmented Nuclei (%) (U2OS; [2]): 27% and 4%; Population Mitotic Cells (%) (U2OS; [2]): 58% and 11%; Population Fragmented Nuclei (%) (U2OS; [3]): 46% and 3%; Population Healthy Nuclei (%) (U2OS; [3]): 14% and 68%; Population Mitochondria Different-Phenotype (%) (U2OS; [4]): 31% and 0%; Population Membrane Permeable-Phenotype (%) (U2OS; [5]): 53% and 0%; Population Mitochondria Different-Phenotype (%) (U2OS; [5]): 61% and 0%; Population Membrane Permeable-Phenotype (%) (U2OS; [6]): 87% and 0%; Population Mitochondria Different-Phenotype (%) (U2OS; [6]): 87% and 0%; Population Tubulin-Different-Phenotype (%) (U2OS; [6]): 100% and 0%; Population Fragmented Nuclei (%) (U2OS; [1]): 44% and 10%
CC(C)N(CCCCOCC(=O)NS(C)(=O)=O)c1cnc(-c2ccccc2)c(-c2ccccc2)n1 [SELEXIPAG] | 21 and 221 | 45 and 272 | 36 and 317 | 63 and 382 | 52 and 732 | 116 and 824 |  |  | 20% and 3% | Population Mitotic Cells (%) (Fibroblast; [1]): 10% and 40%; Population Mitotic Cells (%) (U2OS; [2]): 0% and 61%; Population Fragmented Nuclei (%) (U2OS; [6]): 15% and 1%; Population Pyknosed Nuclei (%) (U2OS; [6]): 17% and 4%
CN1CCCN(C(=O)c2cccc(-c3ccc(/C=C4/C(=O)Nc5ccc(Cl)cc54)o3)c2)CC1 | 130 and 37 |  | 41 and 133 |  |  |  | 4% and 21% | 37% and 12% | 5% and 37% | Population Membrane Permeable-Phenotype (%) (Fibroblast; [3]): 61% and 0%; Population Fragmented Nuclei (%) (U2OS; [3]): 12% and 42%; Population Membrane Permeable-Phenotype (%) (U2OS; [3]): 53% and 6%; Population Mitochondria Different-Phenotype (%) (U2OS; [3]): 69% and 12%; Population Mitotic Cells (%) (U2OS; [3]): 8% and 35%; Population Membrane Permeable-Phenotype (%) (U2OS; [5]): 83% and 0%; Population Mitochondria Different-Phenotype (%) (U2OS; [5]): 66% and 9%; Population Mitotic Cells (%) (U2OS; [5]): 4% and 42%; Population Fragmented Nuclei (%) (U2OS; [1]): 4% and 43%; Population Membrane Permeable-Phenotype (%) (U2OS; [1]): 96% and 26%; Population Mitochondria Different-Phenotype (%) (U2OS; [1]): 89% and 26%; Population Mitotic Cells (%) (U2OS; [1]): 3% and 37%
Cn1ncc(NC(=O)c2nc(-c3c(F)cccc3F)sc2N)c1N1CC[C@@H](N)[C@H](F)CC1 | 47 and 177 | 60 and 210 | 50 and 266 |  | 476 and 78 | 56 and 200 | 14% and 45% |  |  | Population Tubulin-Different-Phenotype (%) (Fibroblast; [6]): 19% and 6%
CN(C)C/C=C/C(=O)Nc1ccc(C(=O)Nc2cccc(Nc3ncc(Cl)c(-c4c[nH]c5ccccc45)n3)c2)cc1 | 32 and 140 | 62 and 239 | 35 and 144 | 69 and 229 | 28 and 135 | 216 and 57 |  | 16% and 5% |  | Population Mitochondria Different-Phenotype (%) (Fibroblast; [5]): 3% and 14%; Population Membrane Permeable-Phenotype (%) (U2OS; [4]): 36% and 8%; Population Mitotic Cells (%) (U2OS; [6]): 15% and 3%; Population Healthy Nuclei (%) (U2OS; [1]): 13% and 1%; Population Membrane Permeable-Phenotype (%) (U2OS; [1]): 71% and 0%
C[C@H](N)Cn1ccc2cc(F)c(Cl)cc21.O=C(O)/C=C/C(=O)O | 262 and 45 | 311 and 32 | 48 and 355 | 409 and 41 | 99 and 813 | 74 and 718 |  | 0% and 37% |  | Population Fragmented Nuclei (%) (Fibroblast; [4]): 51% and 16%; Population Membrane Permeable-Phenotype (%) (Fibroblast; [4]): 48% and 3%; Population Tubulin-Different-Phenotype (%) (Fibroblast; [4]): 54% and 13%
NCC1CCC(CNc2nc(NCc3ccccc3OC(F)(F)F)ncc2[N+](=O)[O-])CC1 (stereo not given) | 51 and 273 | 41 and 239 | 59 and 365 | 35 and 245 | 78 and 644 | 33 and 256 |  |  |  | Population Mitotic Cells (%) (Fibroblast; [1]): 10% and 33%
C[C@@H]1CC[C@@]2(OC1)O[C@H]1[C@@H](O)[C@H]3[C@@H]4CC[C@H]5C[C@@H](O[C@@H]6O[C@H](CO)[C@H](O[C@@H]7O[C@H](CO)C(O)[C@H](O[C@@H]8OC[C@@H](O)[C@H](O)[C@H]8O)[C@H]7O[C@@H]7O[C@H](CO)[C@H](O)[C@H](O[C@@H]8O[C@H](CO)[C@@H](O)[C@H](O)[C@H]8O)[C@H]7O)[C@H](O)[C@H]6O)[C@H](O)C[C@]5(C)[C@H]4CC[C@]3(C)[C@H]1[C@@H]2C (stereo not given in full) [DIGITONIN] |  | 37, 32, 250, 275 |  | 43, 49, 365, 375 |  | 75, 90, 728, 826 |  |  | 18% and 4% | Population Mitotic Cells (%) (Fibroblast; [1]): 10, 35, 25, 40%; Population Pyknosed Nuclei (%) (Fibroblast; [1]): 5%, 20%, 15%; Population Fragmented Nuclei (%) (U2OS; [3]): 27, 9, 4, 2%; Population Mitotic Cells (%) (U2OS; [3]): 50, 0, 60, 34%; Population Mitotic Cells (%) (U2OS; [5]): 50, 16, 41, 63%; Population Fragmented Nuclei (%) (U2OS; [1]): 17, 16, 1, 2%; Population Mitotic Cells (%) (U2OS; [1]): 30, 0, 37, 48%
COc1ccc(NC(=O)c2ccc(-c3ccc(-c4noc(C)n4)cc3C)cc2)cc1OCCN(C)C.Cl | 31 and 173 | 233 and 39 | 37 and 222 | 37 and 239 | 50 and 354 | 38 and 217 |  |  |  | Population Membrane Permeable-Phenotype (%) (Fibroblast; [2]): 7% and 22%; Population Apoptotic (%) (Fibroblast; [3]): 81% and 24%; Population Mitotic Cells (%) (Fibroblast; [3]): 18% and 75%; Population Membrane Permeable-Phenotype (%) (Fibroblast; [5]): 33% and 0%; Population Membrane Permeable-Phenotype (%) (Fibroblast; [1]): 43% and 12%; Population Fragmented Nuclei (%) (U2OS; [2]): 22% and 4%; Population Fragmented Nuclei (%) (U2OS; [4]): 19% and 5%

— ChEMBL document CHEMBL5303300, “EUbOPEN Chemogenomics Library - Multiplex” (2023)
